Reference: the supplement of paper PMC8674133
Changes are numbered by the printed parent chain. Recombinant human monoclonal antibodies (heavy:light variable regions). ELISA EC50 on the named antigen, from 10 µg/ml down; IC50 / IC90 against spike pseudovirus on 293T-ACE2 cells, 48 h; lower = stronger. Calls: IC50 above 1,000 ng/ml = non-neutralizing; EC50 above 2,000 ng/ml = non-binder. The source prints 1000 for neutralization that was not reached; it is given as >1000 ng/ml. A few antibodies were first reported in earlier work of the same group.

B1: C2418 (protein)
chain 1: QVQLQESGPGLVKPSETLSLTCTVSGGSVSSDNYYWSWIRQSPGKGLEWIGYIFYSGSTNYNPSLKSRVTMSVDTSKNQFSLKLNSVTAADTAVYFCARWWRVLPFSSFDYWGQGSLVTVSS
chain 2: QSALTQPASVSGSPGQSITISCTGTSSDIGSYNLVSWYQQHPGKAPKLIIYEGSTRPSGVSDRFSGSKSGNTASLTISGLQAEDEAVYYCCSYMGRSMFEVFGGGTKLTVL
B2: C1252 (protein)
chain 1: QLQLQESGPGLVKPSETLSLTCTVSGGSISSSPYYWGWIRQPPGKGLEWIGSFYYGGSTNYNPSLKSRVTISVDTSKNQFSLKLTSVTAADTAVYYCARREWLRGGFDYWGQGTLVTVSS
chain 2: NFMLTQPHSVSESPGKTVTISCTGSSGSIASNYVQWYQQRPGSAPTTVIYEDNQRPSGVPERFSGSIDSSSNSASLTISGLKTEDEADYYCQSYDNSNLVFGGGTKLTVL
B3: C1253 (protein)
chain 1: QLQLQESGPGLVKPSETLSLTCTVSGGSISSSSYFWGWIRQPPGKGLEWIGTIYFSGSTYYNPSLKSRVTISVDTSKNQFSLRLSSVTAADTAVYYCARLTWLRGNFDYWGQGTLVTVSS
chain 2: B2 chain 2 with S28Y, E61D, N96S, S97A, L99W
B4: C1420 (protein)
chain 1: QLQLQESGPGLVKPSETLSLTCTVSGGSISRSSYYWGWIRQPPGKGLEWIGSMYYSGSTYYNPSLKSRVTISVDTSKNQFSLKLSSVTAADTAVYYCARSLLRWNGAFDIWGQGTMVTVSS
chain 2: SYELTQPPSVSVAPGKTARITCGVNNIGSYSVHWYQQNPGQAPVLVIYYDSDRPSGIPERFSGSNSGNTATLTISRVEAGDEADYYCQVWDNSSDHPYVFGTGTKVTVL
B5: C1419 (protein)
chain 1: QVQLQESGPGLVKPSQTLSLTCTVSGGSISGGGYYWTWIRQHPGKGLEWIGHIYYSENTYYNPSLKSRVSISVDTSKNQFSLKLSSVTAADTAVYYCASGRWLPEFDYWGQGTLVTVSS
chain 2: EIVMTQSPATLSVSPGERATLSCRASQSVSSNLAWYQQKPGQAPRLLIYGASTRATGIPARFSGSGSGTEFTLTISSLQSEDFAVYYCQQYNNWPRGFTFGPGTKVDIK
B6: C1246 (protein)
chain 1: QVQLVESGGGLVKPGGSLRLSCAASGFTFSDYYMSWIRQAPGKGLEWVSYISSSGSTIYYADSVKGRFTISRDNAKNSLYLQMNSLRAEDTAVYYCAPQLWLRGAFDYWGQGTLVTVSS
chain 2: NFMLTQPHSVSESPGKTVTISCTRSSGSIASNYVQWYQQRPGSSPTTVIYEDNQRPSGVPDRFSGSIDSSSNSASLTISGLKTEDEADYYCQSYDSSNHAVFGGGTQLTVL
B7: C1264 (protein)
chain 1: EVQLLESGGGLVQPGGSLRLSCAASGFTFSSSAMSWVRQAPGKGLEWVSAFSASGGSTYYADSVKGRFTISRDNSKNTLFLQMNSLRAEDTAVYFCAKTNTGWYLGIDYWGPGTLVTVSS
chain 2: B6 chain 2 with R24G, S44A, H99L, A100W, Q107K
B8: C1251 (protein)
chain 1: QLQLQESGPGLVKPSETLSLTCAVSGGSISSSSYFWGWIRQPPGRGLEWIGNIYYSGTTYYNPSLKSRVTISVDASKNQFSLKLTSVTAADTAVYYCATQGWLRGYFDYWGQGTLVTVSS
chain 2: B6 chain 2 with R24G, S25R, S44A, T46S, H99L, A100V, Q107K
B9: C1421 (protein)
chain 1: QVQLQQWGAGLLKPSETLSLTCAVYGGSFSGYYWSWIRQPPGKGLEWIGEINHSGSTDYNPSLKSRVTISVDTSKNQFSLKVSSVTAADTAVYYCARDDGGFRELFLDYWGQGTLVTVSS
chain 2: QSVLTQPPSASGTPGQRVTISCSGSSSNIGTNYVYWYQQLPGTAPKLLIYRNNQRPSGVPDRFSGSKSGTSASLAISGLRSEDEADYYCAAWDDSLRGVFGGGTKLTVL
B10: C1169 (protein)
chain 1: QVQMVQSGAEVKKPGGSVKVSCKASGDTFSSHYVHWVRQAPGQGLEWMGIMNPSGGSTTYGQKFQGRVTMTRDTTTSTLSMELSRLRSDDTAVYYCARDSAFIPHMDYGLDVWGQGTTVTVSS
chain 2: QSALTQPPSASGSPGQSVTISCTGTSSDVGGYNYVSWYQQNPGKAPKLMIYEVSERPSGVPDRFSGSKSGNTASLTVSGLQVEDEADYYCSSYAASNNLIFGGGTKLTVL
B11: C1167 (protein)
chain 1: QVQLVESGGGVVQPGRSLRLSCAASGFTFRNYAMHWVRQAPGKGLEWVALILYDGSNEYYADSVKGRFTISRDNSKNTLYLQMNSLRAEDTAVYYCAKTLYSYAYDQYFFDYWGQGTLVTVSS
chain 2: IQLTQSPASLSASVGDRVTITCRANQGIRSALAWYQKKPGKAPKLLISEASNLEGGVPSRFSGSGSGTDFTLTISSLQPEDFATYYCQQFNSYPPLTFGGGTKVEIK
B12: C1416 (protein)
chain 1: EVQLVESGGGLVQPGRSLRLSCAASGFTFDDYAMHWVRQAPGKALEWVSGISWNSGSIAYADSVRGRFTISRDNAKNSLYLQMNSLRAEDTALYYCAKDQGNYGDYFDYWGQGTLVTVSS
chain 2: SYELTQPPSVSVAPGKTARITCGGNNIGSKSVHWYQQKPGQAPVLVIYYDSDRPSGIPERFSGSNSGNTATLTISRVEAGDEADYYCQVWDSTSDHYVFGDHYVFGTGTKVTVL
B13: C1415 (protein)
chain 1: EVQLVESGGGLVQPGGSLRLSCAASGFTVSSNYMSWVRQAPGKGLEWVSLIYSGGSTYYADSVKGRFTISRDNSKNTLYLQMNSLRAEDTAVYYCARDYGAYGRRNDFWGQGTLVTVSS
chain 2: DIQMTQSPSSLSASVGDRVTITCQASQDISNYLNWYQQKPGKAPKLLIYDASNLETGVPSRFSGSGSGTDFTFTISSLQPEDIATYYCQQYDNLPRTFGQGTKLEIK
B14: C1422 (protein)
chain 1: QVQLVESGGGVVQPGRSLRLSCAASGFTFSSYGMNWVRQAPGKGLEWVALISYDGSNKYYADSVKGRFTISRDNSKNTLYLQMNSLRAEDTAVYYCAKGGLYSSSSLDDYWGQGTLVTVSS
chain 2: B13 chain 2 with P95L, R96L, Q100G, L104V
B15: C1424 (protein)
chain 1: QVQLVESGGGVVQPGRSLRLSCAASGFTFSHYGMHWVRQAPGKGLEWVAVILYDGSDKYYADSVKGRFTISRDNPKNTLYLQMNSLRAEDTAVYYCAKQAGPYCSGGNCYGGTLDYWGQGSLVTVSS
chain 2: B13 chain 2 with K42Q, E81D, R96P, T97A, Q100P, L104V, E105D
B16: C1418 (protein)
chain 1: QVQLVESGGGVVQPGRSLRLSCAASGFTFSTYAMHWVRQAPGKGLEWVAVISYDGSNRYYADSVKGRFTISRDNSKNTLYLQMNSLRAEDTAVYYCARDGRTITMVQGVISGAFDIWGQGTMVTVSS
chain 2: B13 chain 2 with Y36F, T69A, D70H, R96F, Q100P, L104V, E105D

What was measured:
[1] = biological target: SARS-CoV-2 Wuhan-Hu-1 spike pseudovirus; test: pseudovirus neutralization IC50; higher = weaker neutralization
Method: (§1)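 Single-round luciferase reporter pseudovirus mixed with antibody dilutions and put on 293T-ACE2 cells for 48 h; signal relative to no-antibody wells, four-parameter fit.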

[2] = biological target: SARS-CoV-2 Wuhan-Hu-1 spike pseudovirus; test: pseudovirus neutralization IC90; higher = weaker neutralization
Method: as §1

[3] = biological target: SARS-CoV-2 Wuhan-Hu-1 spike receptor-binding domain; test: ELISA binding EC50; higher = weaker binding; ELISA of recombinant human antibody on coated antigen, from 10 µg/ml in fourfold dilutions; four-parameter fit.

| Binder | pseudovirus neutralization IC50 [1] | pseudovirus neutralization IC90 [2] | ELISA binding EC50 [3] |
| --- | --- | --- | --- |
| B1 | > 1 µg/mL | > 1 µg/mL | 0.00149 µg/mL |
| B2 | 0.133 µg/mL | 0.913 µg/mL | 0.0026 µg/mL |
| B3 | 0.0857 µg/mL | 0.391 µg/mL | 0.00372 µg/mL |
| B4 | > 1 µg/mL | > 1 µg/mL | 0.00342 µg/mL |
| B5 | > 1 µg/mL | > 1 µg/mL | 0.00285 µg/mL |
| B6 | > 1 µg/mL | > 1 µg/mL | 0.00286 µg/mL |
| B7 | 0.28 µg/mL | > 1 µg/mL | 0.00245 µg/mL |
| B8 | 0.14 µg/mL | > 1 µg/mL | 0.00271 µg/mL |
| B9 | 0.507 µg/mL | > 1 µg/mL | 0.0033 µg/mL |
| B10 | > 1 µg/mL | > 1 µg/mL | 0.00249 µg/mL |
| B11 | > 1 µg/mL | > 1 µg/mL | 0.00176 µg/mL |
| B12 | > 1 µg/mL | > 1 µg/mL | 0.00314 µg/mL |
| B13 | 0.0408 µg/mL | 0.181 µg/mL | 0.00259 µg/mL |
| B14 | 0.95 µg/mL | > 1 µg/mL | 0.00342 µg/mL |
| B15 | > 1 µg/mL | > 1 µg/mL | 0.00315 µg/mL |
| B16 | 0.00412 µg/mL | 0.0234 µg/mL | 0.002 µg/mL |
